# The other results are listed elsewhere or left out. Sequences were assembled here from the parent chain. Inactive controls read about 0.05.
# B1: TEV protease; numbered along this chain (parent)
# chain: MGESLFKGPRDYNPISSSICHLTNESDGHTTSLYGIGFGPFIITNKHLFRRNNGTLVVQSLHGVFKVKDTTTLQQHLVDGRDMIIIRMPKDFPPFPQKLKFREPQREERICLVTTNFQTKSMSSMVSDTSCTFPSGDGIFWKHWIQTKDGQCGSPLVSTRDGFIVGIHSASNFTNTNNYFTSVPKNFMELLTNQEAQQWVSGWRLNADSVLWGGHKVFMVKPEEPFQPVKEATQL
# Variants of: B1
# Test: raw area under fraction-flipped curve 0-4 h after induction (AUC4h, not background-subtracted), DNA-recorder readout of cleavage of the substrate (dimensionless); higher = more cleavage of the substrate by the protease variant
# Conditions: temperature: 34 °C; time window: 0-4 h after rhamnose induction
# Experimental: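 In vivo DNA recorder in E. coli TOP10(DE3) ΔrhaA at 34 °C. Each TEVp single-site mutant (parent TEVp 0) is paired with a single-site variant of the 7-mer TEVs (canonical ENLYFQ|S). The substrate sits between flexible linkers in a Bxb1-sfGFP-TEVs-SsrA fusion, so cleavage stabilises Bxb1 and speeds flipping of a recombination array, read by NGS. The value is the raw area under the fraction-flipped curve over 0-4 h after rhamnose induction (AUC4h), with ≥20 reads per time point. It is not background-subtracted; inactive controls average about 0.047.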
# 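Further: Bxb1 expression induced with 0.2% (w/v) L-rhamnose at OD600 near 0.5, cultures sampled hourly, flipped fraction per protease–substrate barcode pair counted by paired-end Illumina sequencing.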
Variant,area with substrate EALYFQS,area with substrate ECLYFQS,area with substrate EILYFQS,area with substrate EKLYFQS,area with substrate EMLYFQS,area with substrate EPLYFQS,area with substrate EQLYFQS,area with substrate ERLYFQS,area with substrate ESLYFQS,area with substrate EVLYFQS,area with substrate EDLYFQS,area with substrate EGLYFQS,area with substrate EELYFQS,area with substrate ETLYFQS,area with substrate EWLYFQS,area with substrate EYLYFQS,area with substrate EHLYFQS,area with substrate ELLYFQS,area with substrate EFLYFQS
N116P,0.121,0.0827,0.0866,0.0981,0.116,0.117,0.109,0.137,0.0988,0.103,–,–,–,–,–,–,–,–,–
N116Y,0.117,0.0779,0.0911,–,0.124,0.0974,0.15,0.0856,0.0963,–,0.106,0.106,–,–,–,–,–,–,–
N116L,0.125,0.0919,–,–,0.0937,–,0.0635,–,0.123,0.0727,–,–,0.0975,–,–,–,–,–,–
V126C,0.138,0.12,0.0805,0.108,0.12,–,–,–,–,–,–,–,0.128,0.136,0.0845,0.092,–,–,–
V126I,0.108,0.118,0.0857,0.121,0.0917,–,0.116,0.0966,0.0884,0.0898,–,0.0988,0.123,0.134,–,0.0809,0.0747,0.0067,–
T115Y,0.126,0.0458,0.13,0.136,0.13,0.0896,0.119,0.0948,0.0792,0.111,–,0.106,–,0.126,–,–,–,0.0743,–
H143G,0.119,–,0.103,–,0.0869,0.113,0.104,0.0748,0.131,–,0.136,–,–,0.0805,0.081,0.0806,–,0.0719,0.101
S127L,0.129,–,–,–,–,0.142,0.135,0.0983,0.0352,0.0947,0.136,–,–,0.112,–,–,–,0.108,–
S127I,0.117,0.111,0.101,–,0.108,0.126,0.121,–,0.0462,0.0989,–,0.102,0.128,0.109,0.109,–,0.127,0.0851,0.112
P155I,0.0681,0.0667,0.0481,0.067,–,0.0698,0.0656,0.0696,0.0686,0.041,–,0.0647,–,0.0602,0.0967,0.0721,–,0.057,0.0838
F133M,0.0735,–,0.107,0.105,0.118,–,0.0723,0.092,0.116,0.0936,0.145,0.0849,0.12,–,–,–,0.105,0.107,0.0908
F133L,0.111,0.104,–,0.141,–,0.11,–,0.106,–,0.101,–,0.0987,–,–,0.146,–,0.143,0.104,–
F133P,0.0771,–,0.0448,0.0562,0.0712,0.0684,0.0705,0.0749,0.0701,0.0564,0.132,0.0619,0.066,0.0578,0.0792,–,0.0617,–,–
Q118Y,0.124,0.108,0.0687,0.125,0.115,–,0.111,–,0.116,0.0935,–,0.0898,0.0891,–,–,–,–,–,–
L156R,0.0561,–,–,0.0864,0.0656,–,0.0457,–,0.0524,0.0726,–,0.0662,–,–,–,0.0144,0.0564,0.0329,–
M122I,0.106,0.108,0.0765,0.112,0.157,0.184,0.109,–,0.144,0.0867,–,–,0.139,–,0.0963,0.132,–,0.0963,–
M122V,0.117,0.116,0.129,–,0.107,0.107,–,0.137,0.0992,0.0784,–,–,–,–,–,–,–,0.0919,–
T129L,0.0797,–,0.0992,0.0929,0.12,–,0.109,0.089,0.1,0.177,0.118,–,–,0.102,0.0872,–,0.107,–,–
F117E,0.148,0.108,–,0.103,–,–,0.112,0.0914,0.101,–,–,0.0894,0.146,0.094,–,0.0887,0.104,0.0779,–
D137V,0.117,0.1,–,0.0965,0.092,0.0941,–,–,0.118,0.0898,–,0.1,0.116,0.126,–,–,–,–,–
D137F,0.0422,0.0946,0.066,–,0.102,–,0.13,0.0539,0.108,0.0669,–,–,–,0.0744,–,–,–,0.0877,–
P134Q,0.113,0.13,0.0959,0.104,–,0.095,0.105,0.121,–,–,–,0.0937,–,–,–,0.104,–,0.0899,–
P134W,0.0728,–,0.0684,0.0594,–,0.0351,0.0751,–,0.0738,–,0.0759,–,–,0.0798,0.0628,0.0694,–,–,–
D149T,0.116,–,0.0672,0.0873,0.0981,–,0.091,0.0923,0.0917,0.0895,0.105,0.0736,0.114,0.0649,0.0026,–,0.0869,0.0713,–
F140L,0.083,0.082,0.0719,0.0789,–,0.0779,0.0906,0.0637,0.0785,0.0745,–,–,0.0818,–,0.0863,–,0.104,0.0697,0.0818
F140V,0.0696,0.0641,0.0428,0.0624,0.0638,0.0784,0.0703,0.0624,0.0636,0.0646,0.0803,–,–,0.0601,0.0776,0.0517,0.0588,0.0549,–
F140W,0.143,0.103,–,0.0928,0.112,–,0.115,–,0.107,–,–,–,–,–,–,–,–,–,–
S121I,0.103,0.113,0.0936,0.0971,0.0919,–,0.112,0.101,0.0925,0.0893,–,0.0817,0.115,0.0978,0.044,–,–,0.0916,0.0976
S121K,0.124,0.104,0.0948,0.135,0.118,–,0.143,0.123,0.111,0.112,–,0.0881,0.114,–,0.108,0.113,0.138,–,–
